Source: PubChem BioAssay AID488969 (Vanderbilt High Throughput Screening Facility, 2010)
Over roughly 110,000 compounds, “z-score” has its median near -0.1; the highest 2% begin near 2. Some of the results follow.

Each compound was assayed against Metabotropic glutamate receptor 8 (Rattus norvegicus) (UniProt P70579) (assay: rat mGluR8 modulators via GIRK flux, primary screen, cell-based, thallium flux, HTS (AID 488969)). Details: HEK293 rat mGluR8, GIRK (G protein-gated inwardly rectifying potassium channel) thallium flux, FluoZin2; at 10 µM; stronger effect = higher value; submaximal glutamate (EC20) added with thallium.
Sequence of UniProt P70579 (P70579 whole entry, looked up): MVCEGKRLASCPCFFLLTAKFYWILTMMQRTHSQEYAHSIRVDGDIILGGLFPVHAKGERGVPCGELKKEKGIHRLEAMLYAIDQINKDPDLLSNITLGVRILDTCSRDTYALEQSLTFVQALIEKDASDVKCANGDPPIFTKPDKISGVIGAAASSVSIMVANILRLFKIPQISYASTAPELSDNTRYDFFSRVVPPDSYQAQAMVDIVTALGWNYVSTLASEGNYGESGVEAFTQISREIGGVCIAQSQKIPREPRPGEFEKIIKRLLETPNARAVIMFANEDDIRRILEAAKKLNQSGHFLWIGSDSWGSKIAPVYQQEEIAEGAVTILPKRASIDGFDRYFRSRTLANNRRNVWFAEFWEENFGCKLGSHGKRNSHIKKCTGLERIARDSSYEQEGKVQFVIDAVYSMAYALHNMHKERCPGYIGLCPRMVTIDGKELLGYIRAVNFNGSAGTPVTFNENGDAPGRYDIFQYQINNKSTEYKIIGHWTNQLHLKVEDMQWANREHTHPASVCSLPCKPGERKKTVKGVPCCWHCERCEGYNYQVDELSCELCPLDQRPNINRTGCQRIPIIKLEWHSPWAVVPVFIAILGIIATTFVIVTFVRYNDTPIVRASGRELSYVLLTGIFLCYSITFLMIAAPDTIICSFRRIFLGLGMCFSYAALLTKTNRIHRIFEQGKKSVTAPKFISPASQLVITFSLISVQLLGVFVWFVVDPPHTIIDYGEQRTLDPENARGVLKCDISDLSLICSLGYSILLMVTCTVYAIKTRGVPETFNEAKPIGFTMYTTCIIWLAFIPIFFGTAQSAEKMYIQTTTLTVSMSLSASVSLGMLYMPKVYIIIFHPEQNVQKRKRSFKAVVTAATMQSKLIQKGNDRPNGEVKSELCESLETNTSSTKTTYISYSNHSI
In the case of O=C(Cn1cc(C(F)(F)F)ccc1=O)N/N=C/c1ccc(Cl)cc1, the z-score is reported as 0.495.
COc1ccc(-c2nnc(NC(=O)CSc3ccccc3)s2)cc1OC gave a z-score of 0.0532.
Cc1noc(/C=C/c2ccco2)c1S(=O)(=O)N1CCC(C(=O)N2CCc3ccccc3C2)CC1 showed a z-score of -0.148.
With Cn1nnnc1SCC(=O)Nc1nc2c(s1)CCCC2 the z-score was -0.0232.
CC1(C)Cc2ccccc2-c2nc(-c3ccccc3)oc(=O)c21 showed a z-score of 0.322.
For CC(=O)Nc1sc(N/N=C\c2ccccc2Cl)nc1-c1cccs1, the z-score was 0.325.
Work on CCCS(=O)(=O)c1snnc1C yielded a z-score of 0.254.
c1csc(COc2ccccc2CNC2CCCCC2)c1 showed a z-score of 0.159.
With COc1ccccc1NC(=O)NS(=O)(=O)c1ccc(C)cc1 the z-score was 0.149.
In the case of COc1cc(NC(=O)COC(=O)CSc2ccccc2F)c(C)cc1[N+](=O)[O-], the z-score is reported as -0.914.
Work on O=C(CC(NS(=O)(=O)c1ccc(Cl)cc1)c1ccco1)NCc1cccnc1 (stereo unspecified) yielded a z-score of -0.194.
For Cc1cc(OCC(=O)NCCN2CCOCC2)ccc1Br, the z-score was -0.0883.
Work on O=C(NC1CCCC1)C1CCCN1S(=O)(=O)c1cccc2cccnc12 (stereo unspecified) yielded a z-score of -0.119.
O=C(C1CC1(c1ccccc1)c1ccccc1)N1CCOCC1 (stereo unspecified) showed a z-score of 0.816.
Work on O=C(O)C1CCCCC1C(=O)Nc1ccc2c(c1)CCC2 (stereo unspecified) yielded a z-score of -0.0401.
In the case of CCOC(=O)c1c(NC(=O)Cn2c(C)nc3ccccc32)sc2c1CCC2, the z-score is reported as -0.172.
COC(=O)c1ccc(NC(=O)CSc2n[nH]c(-c3ccncc3)n2)cc1 was tested, and the z-score was 0.78.
Cc1cccc(C(=O)Nc2nnc(-c3ccc(C(C)(C)C)cc3)s2)c1 was tested, and the z-score was 0.412.
Compound CC(=O)OC(C)(CCC(C)(OC(C)=O)C(C)=O)C(C)=O (stereo unspecified) has a z-score of -0.269.
For COc1ccc(C2=C(O)C(C)N(c3ccccc3)C2=N)cc1OC (stereo unspecified), the z-score was -0.394.
Compound Cc1ccc(Cl)cc1Nc1nc(-c2sc(NC(=O)C(C)(C)C)nc2C)cs1 has a z-score of -0.0396.
Work on Cc1ccc(C(c2sc3nc(C)nn3c2O)N2CCN(C(=O)c3ccco3)CC2)cc1 (stereo unspecified) yielded a z-score of -0.0257.
Work on O=P(OC1CCCCC1)(OC1CCCCC1)C(O)c1c(Cl)cccc1Cl (stereo unspecified) yielded a z-score of -0.591.
With Cc1cc(N2CCC3(CC2)OCCO3)n2nc(C)c(-c3ccc(Cl)cc3)c2n1 the z-score was 0.0151.
With Cc1ccc(C2=NNC(C(O)C(O)C(O)CO)S2)cc1 (stereo unspecified) the z-score was 0.54.
With CC(=O)c1cc(-c2ccccc2)n(CCC(=O)NC2CCCCCC2)c1C the z-score was -0.728.
CCC(c1nnnn1Cc1ccco1)N(Cc1cc2cc(OC)ccc2[nH]c1=O)C1CCCCC1 (stereo unspecified) was tested, and the z-score was -0.547.
In the case of COc1cc2ncnc(NCc3ccccc3)c2cc1OC, the z-score is reported as -0.102.
Work on O=C(CNC(=O)c1cccc(F)c1)N/N=C/c1cccc([N+](=O)[O-])c1 yielded a z-score of -0.00152.
Cc1c(NC(=O)CSc2ccc(Cl)cc2)cccc1-c1nc2cc(Cl)ccc2o1 showed a z-score of -0.136.
Compound O=C(N/N=C/c1ccc(O)c(O)c1)C1c2ccccc2Oc2ccccc21 has a z-score of -0.183.
O=C(c1ccco1)N1CCN(c2ncnc3scc(-c4ccc(F)cc4)c23)CC1 gave a z-score of 0.162.
COc1ccc(S(=O)(=O)N(C)CC(=O)Nc2ccccc2OC)cc1 was tested, and the z-score was -0.484.
COc1cc(NC(=O)c2nccnc2C(=O)O)cc(OC)c1 gave a z-score of -0.269.
CCOC(=O)C(=O)NNc1cccc(C)c1C showed a z-score of 0.602.
CCCn1c(SCC(=O)c2cc(C)c(C)cc2C)n[nH]c1=O gave a z-score of -0.844.
In the case of Nc1c(NCc2ccccc2)c2ccccc2oc1=O, the z-score is reported as -0.459.
Cc1ccc([N+](=O)[O-])c(OCCN2CCCCCC2)c1 showed a z-score of -0.0506.
Compound Cc1cc(OCC(=O)NCC(C)C)cc(C)c1Br has a z-score of -0.137.
Compound O=C1CCCc2ccccc2N1Cc1ccc(Cl)cc1Cl has a z-score of -0.185.
Work on N#Cc1nc(COc2ccc(F)cc2)oc1NCCN1CCOCC1 yielded a z-score of 0.0242.
CCOc1ccccc1NC(=O)c1cccc(NC(=O)CC(c2ccccc2)c2ccccc2)c1 was tested, and the z-score was -0.177.
Compound CCc1ccc(NC(=O)CS(=O)CC(=O)NCC2OCCc3ccccc32)cc1 (stereo unspecified) has a z-score of 0.192.
In the case of C=CC1=C(C(=O)O)N2C(=O)C(NC(=O)Cc3ccccc3)C2SC1 (stereo unspecified), the z-score is reported as -0.434.
O=c1[nH]c2cc(Br)cnc2nc1/C=C(\O)c1ccc(F)cc1 gave a z-score of -0.28.
CC1=C(C#N)C(c2ccc3ncccc3c2)C(C#N)=C(C)N1 was tested, and the z-score was -0.547.
Compound Cc1sc2ncnc(N=Nc3c(O)[nH]c4ccccc34)c2c1C has a z-score of -0.0288.
CCN(CC(=O)Nc1ccc(S(N)(=O)=O)cc1)S(=O)(=O)c1cc(C)ccc1OC showed a z-score of -0.393.
Cc1ccc2ncccc2c1[N+](=O)[O-] showed a z-score of -0.242.
CC(=O)N1CCN2C(=O)C1CCCC(=O)c1cc(C)ccc12 (stereo unspecified) showed a z-score of -0.767.
With O=C(CCn1c(=O)c2ccccc2n(CC(=O)NC2CCCC2)c1=O)NCc1ccco1 the z-score was -0.258.
With CCN(CC)S(=O)(=O)c1cc(C(=O)N2CCc3ccccc32)ccc1Cl the z-score was -1.5.
O=C1C=C(NCCNc2c(F)c(F)c(CO)c(F)c2F)CCC1 was tested, and the z-score was -0.00916.
With CCOC(=O)C1CCCN(S(=O)(=O)c2ccc(Br)c(OC)c2)C1 (stereo unspecified) the z-score was -0.679.
Compound CCN1CCN(C(=O)Nc2cccc3ccccc23)CC1 has a z-score of -0.222.
Compound CN1CC(=O)N(CC(=O)NCc2ccc(F)cc2)c2ccccc2C1=O has a z-score of 0.93.
In the case of O=C(CCn1cnc2ccccc2c1=O)Nc1ccc2c(c1)OCCO2, the z-score is reported as 0.337.
Work on Fc1ccc(Nc2c(-c3ccco3)nc3ccccn23)cc1 yielded a z-score of -0.36.
In the case of N#CCCn1nc(-c2ccc(Br)cc2)cc1Nc1ccccc1NC(=O)C(F)(F)F, the z-score is reported as 0.396.
In the case of Cc1ccc(NC(=O)C(=O)NCCN2CCN(C(=O)C(c3ccccc3)c3ccccc3)CC2)cc1, the z-score is reported as -0.0698.
With CCOc1ccccc1N/C=C/C(=O)C(C)(C)C the z-score was -0.207.
Cc1cc(NCCCN2CCOCC2)n2ncc(-c3ccccc3)c2n1 gave a z-score of 1.02.
For Cc1[nH]n2c(=O)c3c(nc2c1-c1ccccc1)CCC3, the z-score was -1.66.
In the case of Cc1ccc(C(=O)NCCOC23CC4CC(CC(C4)C2)C3)cc1, the z-score is reported as -0.413.
With COc1ccc(/C=C2\SC(=S)N(NC(=O)c3csc4c3CCCC4)C2=O)cc1 the z-score was -0.115.
With O=C(CSc1nc(-c2ccccc2)cc(C(F)(F)F)n1)NCCN1CCOCC1 the z-score was 2.92.
For O=C(OCN1C(=O)c2ccccc2C1=O)c1ccc2c(=O)n3c(nc2c1)CCC3, the z-score was 0.129.
Cc1ccc(NC(=O)Cn2cnc3sc(C(=O)NCc4ccco4)c(C)c3c2=O)cc1Cl showed a z-score of -0.0832.
For O=C(CN1CCOCC1)NN=C1CCCCCCCCCCC1, the z-score was -0.123.
CCc1cccc(NC(=O)CS(=O)Cc2nc(-c3ccc(C)cc3)oc2C)c1 (stereo unspecified) was tested, and the z-score was -0.236.
In the case of O=S(=O)(Nc1ccc(-c2nc3cccnc3s2)cc1)c1ccc(Cl)s1, the z-score is reported as 0.175.
